Data as given in PubChem BioAssay AID1468 (National Center for Advancing Translational Sciences (NCATS), 2008).
Hit rate of the full screen: of about 280,000 compounds, about 1,100 (0.39%) were called active. This list was built around the results that the source calls inconclusive (neither active nor inactive); the mix of calls is not that of the screen. Calls come from the whole dose curve; as a rule, active = well fitted inhibition curve with a large enough effect; inconclusive = small, poorly fitted or top-dose-only effect, or effect the other way; inactive = flat fitted curve, though single readings scatter. Potencies of inconclusive entries are left out as doubtful fits.
Note: nearly all actives have a fitted effect of over 55% in size.
Potency is the fitted concentration of half-maximal effect; tags give direction and shape of the fitted curve.

Each compound was assayed against Microtubule-associated protein tau (Homo sapiens) (UniProt P10636) (assay: qHTS for Inhibitors of Tau Fibril Formation, Fluorescence Polarization). Conditions: K18 P301L tau heparin fibrillization, Alexa594 FP, 6 h; series mostly up to 57.7 µM.
UniProt P10636, sequence (P10636 whole entry, looked up): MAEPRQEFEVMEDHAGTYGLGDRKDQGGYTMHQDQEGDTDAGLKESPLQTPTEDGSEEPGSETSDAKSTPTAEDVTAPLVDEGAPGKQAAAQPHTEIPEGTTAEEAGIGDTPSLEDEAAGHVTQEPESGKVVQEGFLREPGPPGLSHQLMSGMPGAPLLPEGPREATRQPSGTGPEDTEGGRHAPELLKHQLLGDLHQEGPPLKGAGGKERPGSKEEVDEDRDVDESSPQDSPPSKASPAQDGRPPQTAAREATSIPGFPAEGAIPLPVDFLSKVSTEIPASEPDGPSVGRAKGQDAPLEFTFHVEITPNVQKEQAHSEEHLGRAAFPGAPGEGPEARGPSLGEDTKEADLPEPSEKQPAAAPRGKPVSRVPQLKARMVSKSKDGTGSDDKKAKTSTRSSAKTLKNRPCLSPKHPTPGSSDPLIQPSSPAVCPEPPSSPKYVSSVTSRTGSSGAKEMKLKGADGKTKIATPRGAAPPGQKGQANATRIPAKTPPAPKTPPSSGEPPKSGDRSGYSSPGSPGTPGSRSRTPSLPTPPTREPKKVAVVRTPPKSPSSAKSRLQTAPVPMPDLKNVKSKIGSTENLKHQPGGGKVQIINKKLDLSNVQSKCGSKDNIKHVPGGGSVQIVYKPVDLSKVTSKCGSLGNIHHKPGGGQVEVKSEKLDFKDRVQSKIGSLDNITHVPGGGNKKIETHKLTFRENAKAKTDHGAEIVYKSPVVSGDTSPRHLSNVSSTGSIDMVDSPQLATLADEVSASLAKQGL
Procedure, shortened: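 Recombinant K18 P301L […], labeled with Alexa 594 at 0.24 uM over 15 uM unlabeled; heparin inducer 20 uM final; 37 C, 6 hr; FP endpoint.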
`O=c1cc(O)c(-c2cccc(C(F)(F)F)c2)c(Cl)[nH]1` was tested, and the Potency was inconclusive [inhibitor, partial curve, poor fit]. With `CCc1ccc2occ(CC(=O)Nc3c(C(=O)Nc4ccc(OC)cc4)oc4ccccc34)c2c1` the Potency was inconclusive [inhibitor, partial curve]. With `Cc1cccn2cc(-c3cccc(NS(=O)(=O)c4ccc(Cl)c(Cl)c4)c3)nc12` the Potency was inconclusive [inhibitor, full curve]. `N#CC1=C(S)N(c2ccccc2)C(c2cccs2)NC1=O` (configuration not stated) was tested, and the Potency was inconclusive [inhibitor, single point]. In the case of `Cc1ccc(C2CCN(C(=S)Nc3cccc(Cl)c3)C2)cc1` (configuration not stated), the Potency is reported as inconclusive [inhibitor, single point]. For `O=C(CN1C(=O)c2ccccc2S1(=O)=O)Nc1ccc(S(=O)(=O)N2CCCCCC2)cc1`, the Potency was inconclusive [inhibitor, single point]. With `CC(=O)c1cccc(NC(=O)Cn2c(SCC(=O)Nc3ccc(F)cc3)nc3ccccc32)c1` the Potency was inconclusive [inhibitor, partial curve]. With `Cn1nc2c3ccccc3n(Cc3ccccc3)c2nc1=S` the Potency was inconclusive [inhibitor, single point]. In the case of `CCN(CC)CCOC(=O)c1ccc(NC(=O)c2ccc(Cl)c(S(=O)(=O)N3CCCCCC3)c2)cc1`, the Potency is reported as inconclusive [inhibitor, partial curve]. In the case of `CCOC(=O)c1sc(NC(=O)CSc2nc(C)cc(-c3ccccc3)n2)c(C#N)c1C`, the Potency is reported as inconclusive [inhibitor, single point]. `CCC1CCCCN1S(=O)(=O)c1ccc(NC(=O)c2cc(=O)c3ccccc3o2)cc1` (configuration not stated) was tested, and the Potency was inconclusive [inhibitor, partial curve]. In the case of `CCN(CC)c1ccc(CNC23CN4CN(CN(C4)C2)C3)cc1`, the Potency is reported as “inactive”. With `N#C/C(=C\c1ccc(Cl)cc1)C(=O)NCC1CCCO1` (configuration not stated) the Potency was inconclusive [activator, single point]. In the case of `Cc1ccc(/C=C/C(=O)Nc2nn[nH]n2)o1`, the Potency is reported as inconclusive [inhibitor, single point]. In the case of `COc1ccc(-c2c(C#N)c(SCC(=O)Nc3ccccc3C)nc(C)c2C(=O)Nc2ccccc2)cc1OC`, the Potency is reported as inconclusive [inhibitor, single point]. In the case of `COC(=O)C1=C(C)N(Cc2ccco2)C(=O)N[C@@H]1c1cccc(C(F)(F)F)c1`, the Potency is reported as “inactive”. In the case of `Cc1cccc(NC(=O)Cn2c(=O)n(Cc3ccc(C(=O)NCc4ccc5c(c4)OCO5)cc3)c(=O)c3ccccc32)c1`, the Potency is reported as inconclusive [inhibitor, single point]. `Cc1ccc(NC(=O)CSc2nc(-c3ccc(F)cc3)cc(C(F)(F)F)c2C#N)cc1` was tested, and the Potency was inconclusive [inhibitor, partial curve]. `O=C(COC(=O)CCC(=O)c1cccs1)NCc1ccc(Cl)cc1` was tested, and the Potency was “inactive”. With `Cc1cccc(OCc2nnc(SCC(=O)Nc3ccc(C)cc3C)o2)c1` the Potency was “inactive”. For `FC(F)(F)c1cccc(NC(=S)NNC(=S)Nc2cccc(C(F)(F)F)c2)c1`, the Potency was inconclusive [inhibitor, single point]. With `Cc1ccccc1Cn1c(SCc2ccc(C(=O)NCc3cccs3)cc2)nc2ccncc21` the Potency was “inactive”. In the case of `CCCCCSc1nnc2c(n1)OC(c1ccc(C)s1)N(C(C)=O)c1ccccc1-2` (configuration not stated), the Potency is reported as inconclusive [activator, partial curve, poor fit]. With `Cc1c(Cl)cccc1N1CC(c2nc3ccccc3n2Cc2ccccc2F)CC1=O` (configuration not stated) the Potency was “inactive”. With `Cc1c(CNCCCc2ccccc2)c(C(=O)O)c(C)n1Cc1ccc(Cl)cc1` the Potency was “inactive”. With `O=C(COC(=O)c1ccccn1)Nc1cccc2ccccc12` the Potency was inconclusive [activator, full curve, poor fit]. In the case of `O=C(c1cnn(-c2nc3ccccc3s2)c1)c1ccccc1O`, the Potency is reported as inconclusive [inhibitor, single point]. With `Cc1cccc(NC(=O)Cn2c(=O)n(Cc3ccc4c(c3)OCO4)c(=O)c3ccccc32)c1` the Potency was inconclusive [inhibitor, partial curve]. For `N#CC1(c2ccccc2)CCCN1C(=O)c1ccccc1Br` (configuration not stated), the Potency was “inactive”. `Cc1nc(N2CCN(c3ccccn3)CC2)c2c(C)c(C(=O)Nc3ccc(F)cc3)sc2n1` was tested, and the Potency was inconclusive [inhibitor, single point]. For `COc1ccc(-n2cc3c(c2-c2cccc(Br)c2)c(=O)n(C)c(=O)n3C)cc1OC`, the Potency was “inactive”. `COc1cccc(NC(=O)Cn2c(=O)n(Cc3ccccc3)c(=O)c3c4c(sc32)CN(C(C)=O)CC4)c1` was tested, and the Potency was inconclusive [inhibitor, partial curve]. With `O=[N+]([O-])c1cccc(S(=O)(=O)c2ccc(N3CCCCC3)c([N+](=O)[O-])c2)c1` the Potency was inconclusive [activator, full curve, poor fit]. `COc1ccc(-c2cc(C(F)(F)F)nc(SCC(=O)NCc3ccc(F)cc3)n2)cc1` was tested, and the Potency was inconclusive [inhibitor, single point]. In the case of `O=C(N/N=C/c1ccccc1OC(=O)c1ccc2c(c1)OCO2)c1ccccc1`, the Potency is reported as inconclusive [inhibitor, single point]. In the case of `COC(=O)c1ccccc1NC(=O)c1nc(SCc2ccccc2C)ncc1Cl`, the Potency is reported as inconclusive [inhibitor, partial curve, poor fit]. In the case of `CCC(C)NCCC(=O)Nc1ccc(Cl)c(S(=O)(=O)Nc2ccc(Cl)cc2)c1` (configuration not stated), the Potency is reported as “inactive”. `Cn1c2c(c(=O)[nH]c1=O)C(c1ccc(O)cc1)C1=C(N2)c2ccccc2C1=O` (configuration not stated) was tested, and the Potency was “inactive”. For `O=C(CSc1ncn(-c2ccccc2)n1)Nc1nc(-c2ccccc2)cs1`, the Potency was inconclusive [inhibitor, full curve, poor fit]. `CC(C)Oc1cccc(C(=O)NC(=S)Nc2ccc(N3CCN(C)CC3)cc2)c1` was tested, and the Potency was inconclusive [activator, full curve]. `CCN(C(=O)c1sc2nc3n(c(=O)c2c1C)CCCCC3)c1ccccc1F` was tested, and the Potency was inconclusive [inhibitor, single point]. `CC1=C(C(=O)Nc2ccccc2)C(c2ccccc2[N+](=O)[O-])NC(=O)N1` (configuration not stated) was tested, and the Potency was inconclusive [inhibitor, partial curve]. For `CCN(CC#CCC1(O)c2ccccc2-c2ccccc21)CCO`, the Potency was “inactive”. With `Cc1nc2c(=O)[nH]c(=S)n(C)c2nc1C` the Potency was “inactive”. In the case of `CCN(C(=O)c1cnc(NC(C)C)cc1C(F)(F)F)c1ccc(Cl)cc1Cl`, the Potency is reported as “inactive”. With `CCOc1ccc(Sc2cc(C(=O)NCCc3ccc(OC)c(OC)c3)c3ccccc3n2)cc1` the Potency was “inactive”. `CN(C(=O)CSc1nnc(-c2ccco2)o1)C1CCCCC1` was tested, and the Potency was inconclusive [inhibitor, partial curve]. `N#CC(C#N)=Cc1ccc(NC(=O)c2ccc(Br)cc2)cc1` was tested, and the Potency was inconclusive [inhibitor, partial curve]. For `CC(=O)c1cc2c(cc1N/C(=N/S(=O)(=O)c1ccc(C)cc1)c1ccc(Cl)cc1)OCO2`, the Potency was inconclusive [inhibitor, single point]. For `CCOc1ccc(OCC)c(NC(=O)CSc2nc3c(c(=O)n(C)c(=O)n3C)n2CC)c1`, the Potency was “inactive”. For `Cc1ccc2c(=O)cc(C(=O)Nc3ccc(S(=O)(=O)N4CCCC(C)C4)cc3)oc2c1C` (configuration not stated), the Potency was inconclusive [inhibitor, full curve, poor fit]. For `O=C(CSC(=S)N1CCOCC1)Nc1nc(=O)c2ccccc2s1`, the Potency was inconclusive [inhibitor, single point]. `CCOc1ccc(NC(=O)c2oc3ccccc3c2NC(=O)C(C)Oc2ccccc2)cc1` (configuration not stated) was tested, and the Potency was inconclusive [inhibitor, partial curve]. In the case of `CSc1nc(N)nc(SCC(=O)c2ccccc2)c1C#N`, the Potency is reported as inconclusive [inhibitor, single point]. For `COc1ccccc1C1=Nn2c(nc3sc(C(=O)Nc4ccccc4Cl)c(C)c3c2=O)SC1`, the Potency was “inactive”. For `N/C(=N/OC(=O)c1ccccc1Cl)c1nonc1N`, the Potency was “inactive”. For `O=C(NCCc1ccccc1)c1ccc2nc(-c3ccco3)c(-c3ccco3)nc2c1`, the Potency was inconclusive [inhibitor, single point]. `Cc1ccc(S(=O)(=O)NN2C(=O)/C(=C/c3cccn3C)SC2=S)cc1` was tested, and the Potency was “inactive”. In the case of `CC(C)OCCCN1C=C2C(=O)C(C)(OC(=O)C3CCCC3)C(=O)C=C2C=C1c1ccsc1` (configuration not stated), the Potency is reported as inconclusive [inhibitor, partial curve, poor fit]. For `CC(C)(C)c1cc(C(=S)N2CCN(CCO)CC2)cc(C(C)(C)C)c1O`, the Potency was “inactive”. In the case of `Cc1ccc(NS(=O)(=O)c2cc(NC(=O)c3ccc4c(c3)NC(=O)CS4)ccc2Cl)c(C)c1`, the Potency is reported as active: 25.1 µM. With `O=C(COC(=O)c1cc(-c2cccs2)nc2ccccc12)c1ccc(Cl)cc1` the Potency was inconclusive [inhibitor, partial curve]. `CCOc1ccc(NC(=O)CSc2nc3ccccc3c(=O)n2CCC(=O)NC2CCCCC2)cc1` was tested, and the Potency was “inactive”. For `CN(C)CCC(=O)c1ccc(Cl)cc1`, the Potency was inconclusive [activator, single point]. For `COc1ccc(-c2nc(C)ncc2N=Nc2ccccc2)cc1`, the Potency was “inactive”. For `COc1cc(-c2ccc(NC(C)=O)c(OC)c2)ccc1NC(C)=O`, the Potency was “inactive”. For `Cc1c(C(=O)Nc2cccc(Cl)c2)oc2ccc(S(=O)(=O)N3CCOCC3)cc12`, the Potency was inconclusive [inhibitor, partial curve].
